# According to PubChem BioAssay AID1508642 (National Center for Advancing Translational Sciences (NCATS), 2021):
# The campaign covered roughly 43,000 compounds. About 200 (0.47%) were called active. Another 12% or so got no clear call; they are omitted. Calls come from the whole dose curve; as a rule, active = well fitted cell-killing curve with a large enough effect; inconclusive = small, poorly fitted or top-dose-only effect, or effect the other way; inactive = flat fitted curve, though single readings scatter. The list shows a part of the results.
# Test: Cell viability qHTS assay in S16 Pmp22-F2sN cells; note: nearly all actives have a fitted effect of over 65% in size
# Settings: S16 Pmp22-F2sN Schwann cells viability, CellTiter-Glo, 24 h; series mostly up to 57.5 µM; activity change, negative = cytotoxicity: at the top concentration
# Procedure, shortened: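 Used to flag compounds lowering reporter output through toxicity, this quantitative HTS measures ATP-based CellTiter-Glo luminescence in S16 Pmp22-F2sN Schwann cells after 24 h compound exposure at 37C.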
# % is set by controls: 0 for no effect and ±100 for the full control effect.
row,SMILES,"activity change, negative = cytotoxicity"
1,Cc1ccc(NC(=O)CSc2nc(=O)n(Cc3ccncc3)c3c2CCC3)cc1Cl,inactive: 2.23%
2,CCOc1cc(CNC(=O)CSc2n[nH]c(-c3ccccc3)n2)cc(OCC)c1OCC,inactive: 3.56%
3,COC(=O)c1cc(NC2(c3ccccc3)C(=O)c3ccccc3C2=O)cc(C(=O)OC)c1,inactive: 9.12%
4,COc1ccc(Nc2ncc(C(=O)Nc3cccc(OC)c3)c3ccccc23)cc1,inactive: 17.8%
5,Cc1ccc(Cl)cc1N(C)C(=O)c1sc2nc3n(c(=O)c2c1C)CCCC3,inactive: -3.81%
6,COc1ccc(NC(=O)c2ccco2)cc1NC(=O)c1cccc(C)c1OC,inactive: 5.34%
7,Cc1ccc(NC(=O)NC(C)c2c(-n3cccc3)sc(C)c2C)c(C)c1 (stereo not drawn),inactive: -9.48%
8,Cc1ccc(SCC(=O)Nc2ccc(O)c(-c3nc4cc(C)ccc4o3)c2)cc1,inactive: -9.69%
9,Cc1ccc2c(CN3CCN(c4ccc(Cl)cc4)CC3)cc(=O)oc2c1,inactive: -6.11%
10,Cc1ccc(CNC(=O)CCCCCn2c(=O)c3sccc3n(CC(=O)C(C)(C)C)c2=O)cc1,inactive: -0.877%
11,O=C(Nc1ccccc1)C1CCN(S(=O)(=O)c2ccc3c(c2)CCCN3C(=O)C2CCC2)CC1,inactive: -24.1%
12,Cc1ccc(Cn2c(SCc3ccc(C(=O)O)cc3)nc3cccnc32)cc1,inactive: -0.621%
13,COc1cccc(CC(=O)Nc2c(C(=O)N3CCN(c4ccccc4)CC3)oc3ccccc23)c1,inactive: 1.62%
14,O=C(Cn1c(=O)n(Cc2ccco2)c(=O)c2sc3ccccc3c21)Nc1ccc(F)cc1F,inactive: 19.8%
15,COc1ccc(C(=O)N(Cc2ccco2)Cc2ccccc2F)cc1Cl,inactive: -24.5%
16,COc1ccc(-c2cc(C(F)(F)F)c(C#N)c(SCC(=O)Nc3cccc(C)c3)n2)cc1,inactive: -0.72%
17,CCN(CCCNC(=O)CN1N=C(c2ccccc2)CCC1=O)c1cccc(C)c1,inactive: -3.74%
18,CCC(C)n1c(=O)c2sccc2n2c(CCCC(=O)Nc3ccc(F)cc3)nnc12 (stereo not drawn),inactive: 3.84%
19,CSc1ncc(Cl)c(C(=O)Nc2c(C(=O)c3ccc(C)cc3)oc3ccccc23)n1,inactive: -10.4%
20,CCOC(=O)c1ccc(NC(=O)c2noc3c2CCCC3)cc1,inactive: 1.54%
21,O=C1NC(NS(=O)(=O)c2ccccc2)(C(F)(F)F)C(=O)N1CCc1ccccc1 (stereo not drawn),inactive: -7.45%
22,CCOc1ccc(-c2cc3nc(C4CCN(C(=O)OC(C)(C)C)CC4)c(C(=O)Nc4cccc(Cl)c4C)cn3n2)cc1,inactive: -2.85%
23,Cn1cc(CCCC(=O)NCc2ccc(F)cc2)c2ccccc21,inactive: 17.1%
24,Brc1ccc(-c2cn3cc(Cc4ccccc4)sc3n2)cc1,inactive: 10.9%

row,SMILES,"activity change, negative = cytotoxicity"
1,CC1CCN(S(=O)(=O)c2ccc3[nH]ccc3c2)CC1,inactive: -16.8%
2,O=S(=O)(NCCc1nnc2ccc(SCc3cccc(Cl)c3)nn12)c1ccccc1,inactive: -11.9%
3,COc1ccc(Cn2c(CNC(=O)Cc3ccc(OC)c(OC)c3)nc3cccnc32)cc1,inactive: 2.16%
4,CCN(c1ccccc1)c1ncnc2c1cnn2-c1ccc(OC)cc1,inactive: -1.11%
5,Cc1ccc2[nH]c3c(=O)n(CC(=O)N4CCN(c5ccccc5F)CC4)ncc3c2c1,inactive: 16%
6,Cc1cc(=O)[nH]c2nnc(SCc3cccc(C(F)(F)F)c3)n12,inactive: -12%
7,O=C(CSc1nccn1Cc1ccco1)Nc1ccc(OC(F)(F)F)cc1,inactive: -0.342%
8,CCOc1ccc(NC(=O)Cn2cc(C(=O)C3CC3)c3ccccc32)cc1,inactive: 10.2%
9,COc1ccc(C(=O)Nc2ccc(-c3nc4cc(C)ccc4o3)c(O)c2)cc1,inactive: 10.2%
10,Cc1ccc2c(CNCCc3ccco3)c(C(=O)O)n(Cc3ccc(F)cc3)c2c1,inactive: 0.133%
11,CCOc1ccc(CN(CCc2ccc3c(c2)OCO3)Cc2cc(OC)cc(OC)c2)cc1,inactive: -4.48%
12,COc1ccc(NC(=O)CCCc2nnc3n(C(C)C)c(=O)c4sccc4n23)cc1Cl,inactive: 2.26%
13,COc1ccccc1N1CCN(c2ncc3c(n2)CCN(Cc2ccccc2C)C3)CC1,inactive: 8.39%
14,Cc1nc2ccc(S(=O)(=O)NCC(=O)NCc3ccc(Cl)cc3)cc2s1,inactive: 0.769%
15,Cc1ccc(OCC(=O)OCc2cc(=O)n3ccsc3n2)cc1C,inactive: 2.12%
16,Cc1nn(-c2ccccc2)c(-n2cccc2)c1C(=O)NCCCN1CCN(c2ccccc2F)CC1,inactive: -6.88%
17,COc1ccc(OC(=O)c2cc(-c3ccc4c(c3)OCCO4)on2)cc1,inactive: 0.952%
18,Cc1ccc(C)c(NC(=O)CSc2cn(CC(=O)N3CCCCC3)c3ccccc23)c1,inactive: -19.1%
19,CCOc1ccc(NC(=O)Cn2c(=O)nc(-c3ccccc3)c3ccccc32)cc1,inactive: -3.68%
20,CC(C)c1ccc(NC(=O)Cn2nnc(C(=O)NCCc3ccccc3)c2N)cc1,inactive: 1.38%
21,COc1cc(Cl)c(NC(=O)CN2C(=O)c3cccnc3Sc3ccccc32)c(OC)c1,inactive: 5.45%
22,COc1ccc(NC(=O)C(Cc2ccccc2)NS(=O)(=O)c2ccc3c(c2)oc(=O)n3C)c(OC)c1 (stereo not drawn),inactive: -14.8%
23,Cc1cccc2nc(-c3ccc(Cl)s3)c(Nc3ccc4c(c3)OCCO4)n12,inactive: -5.31%
24,Cc1nc(N2CCOCC2)c2c(C(=O)N3CCN(c4cccc(C(F)(F)F)c4)CC3)c(C)oc2n1,inactive: -1.78%
